# Results as given in the supplement of paper PMC12217912.
# Some of the results follow. Sequences were assembled here from the parent chain. Values near 0.05 are background.
# B1: TEV protease; numbered along this chain (parent)
# chain: MGESLFKGPRDYNPISSSICHLTNESDGHTTSLYGIGFGPFIITNKHLFRRNNGTLVVQSLHGVFKVKDTTTLQQHLVDGRDMIIIRMPKDFPPFPQKLKFREPQREERICLVTTNFQTKSMSSMVSDTSCTFPSGDGIFWKHWIQTKDGQCGSPLVSTRDGFIVGIHSASNFTNTNNYFTSVPKNFMELLTNQEAQQWVSGWRLNADSVLWGGHKVFMVKPEEPFQPVKEATQL
# Variants of: B1
# Experiment: raw area under fraction-flipped curve 0-4 h after induction (AUC4h, not background-subtracted), DNA-recorder readout of cleavage of the substrate (dimensionless); higher = more cleavage of the substrate by the protease variant
# Details: temperature: 34 °C; time window: 0-4 h after rhamnose induction
# Experimental: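 In vivo DNA recorder in E. coli TOP10(DE3) ΔrhaA at 34 °C. Each TEVp single-site mutant (parent TEVp 0) is paired with a single-site variant of the 7-mer TEVs (canonical ENLYFQ|S). The substrate sits between flexible linkers in a Bxb1-sfGFP-TEVs-SsrA fusion, so cleavage stabilises Bxb1 and speeds flipping of a recombination array, read by NGS. The value is the raw area under the fraction-flipped curve over 0-4 h after rhamnose induction (AUC4h), with ≥20 reads per time point. It is not background-subtracted; inactive controls average about 0.047.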
# 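Further: Bxb1 expression induced with 0.2% (w/v) L-rhamnose at OD600 near 0.5, cultures sampled hourly, flipped fraction per protease–substrate barcode pair counted by paired-end Illumina sequencing.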
Variant,area with substrate EALYFQS,area with substrate ECLYFQS,area with substrate EDLYFQS,area with substrate EELYFQS,area with substrate EFLYFQS,area with substrate EGLYFQS,area with substrate EHLYFQS,area with substrate EILYFQS,area with substrate ELLYFQS,area with substrate EMLYFQS,area with substrate EPLYFQS,area with substrate EQLYFQS,area with substrate ERLYFQS,area with substrate ESLYFQS,area with substrate EVLYFQS,area with substrate EWLYFQS,area with substrate EYLYFQS,area with substrate EKLYFQS,area with substrate ETLYFQS
K46S,0.102,0.0861,0.111,0.115,0.0826,0.0576,0.0913,0.0778,0.0836,0.0846,0.114,0.112,0.0862,0.0937,0.0776,0.0857,0.0899,–,–
S32Q,0.124,0.132,0.135,0.119,–,–,–,–,0.0802,0.121,0.141,0.11,0.117,–,0.114,–,–,0.108,–
S32G,0.106,0.0982,0.113,0.109,0.0852,–,0.0916,0.0777,0.0777,0.113,0.117,0.0959,0.0945,0.0897,0.0827,0.0884,–,–,–
P184G,0.1,0.086,0.11,–,–,0.0743,0.0797,0.0665,0.0759,0.0808,–,–,0.152,0.0948,0.0923,0.0555,0.0654,–,–
P184H,0.0788,–,–,0.0948,–,0.0668,0.0577,0.0826,0.0614,–,–,0.0918,–,0.0736,0.0719,–,–,0.0847,0.056
P184N,0.0728,0.0728,0.0921,–,0.0753,–,0.0556,0.0668,–,–,0.082,0.0877,0.0851,0.0792,0.0789,0.077,–,–,0.0771
P184S,0.0994,0.0787,0.0986,0.0601,–,–,0.0832,0.0806,0.0627,0.0946,0.0776,0.0908,0.0847,0.0838,0.0721,0.0835,0.0801,0.0707,0.0815
W203A,0.146,0.0615,0.0894,0.0924,0.0669,0.0613,–,0.0585,0.0591,0.0645,0.0935,0.0745,0.0508,0.0641,0.0574,0.0606,–,–,–
N24W,0.0869,0.0781,0.0686,0.0802,0.0828,0.063,0.0772,0.079,0.0559,0.0677,0.0885,0.101,0.0807,0.143,0.0768,–,0.0977,–,–
G162C,0.101,0.0976,0.176,0.114,0.0941,–,0.099,0.0827,0.0676,0.132,–,0.0972,0.101,0.104,0.09,0.0822,0.104,–,0.0917
T44F,0.0494,0.0671,0.074,0.0682,0.0503,0.0566,0.0618,0.0402,–,0.0552,0.0426,0.0688,0.058,0.064,0.0518,–,0.0466,0.0571,0.03
P104D,0.0452,0.0544,0.0546,0.0527,–,0.0505,0.0421,0.0383,0.0458,0.0445,–,0.0606,0.0447,0.0523,–,0.0513,–,–,0.0532
P104L,0.0587,–,0.0507,0.0577,0.0582,0.0685,0.0525,0.0616,0.0486,0.0675,0.0498,0.0536,0.0698,0.0542,0.0497,0.0441,0.059,0.064,0.0614
S16I,0.12,–,0.123,–,–,–,0.124,0.068,–,0.102,0.118,0.139,0.103,0.0999,0.0883,0.0951,0.066,0.102,–
S16L,0.133,0.0835,0.16,–,–,0.0731,0.116,0.0896,–,0.112,–,0.0954,0.134,0.106,0.0095,0.0636,–,0.125,0.118
Q198K,0.129,0.114,0.118,0.109,0.0985,0.095,0.117,0.103,0.115,0.123,–,0.0969,0.093,0.111,0.102,0.124,0.0961,0.118,0.128
T176F,0.0964,0.0592,0.0669,–,–,–,0.0677,–,–,–,–,0.0743,–,–,0.0762,0.0712,–,0.0558,–
T31E,0.0937,0.108,0.0999,0.11,0.0969,–,0.0875,0.0959,0.105,–,0.0867,0.0785,0.0813,0.0898,0.0896,–,0.0939,–,0.0992
T192I,0.105,0.0883,0.0966,0.0896,0.108,0.0848,0.0827,0.107,0.114,0.103,0.103,0.127,0.106,0.102,0.105,0.0929,0.0915,0.104,0.096
Q105W,0.125,0.0968,0.0964,0.125,0.104,0.0795,–,0.0772,0.0663,0.0949,0.111,–,0.108,0.102,0.0847,0.0785,0.126,0.091,0.133
Q105F,0.112,0.109,0.118,0.108,0.0871,–,0.113,–,0.0784,0.144,0.0748,0.122,0.0822,0.0875,0.084,0.0862,–,0.0776,–
E224H,0.13,–,0.136,0.0997,0.12,0.082,0.105,0.0939,–,–,0.135,–,0.0717,0.0899,0.0909,0.0958,–,0.0982,0.0987
E224Y,0.117,0.0933,0.119,0.126,–,–,0.0996,0.0901,0.0661,0.129,0.0988,0.085,–,0.0831,0.0772,–,–,0.093,–
G136W,0.0844,–,0.129,0.101,–,0.0914,–,0.148,0.104,–,0.118,0.0915,0.0979,0.0907,0.0679,0.0801,–,–,–
